Measured values taken from paper PMC5892938.
Some of the results follow. At the low end of the ranking the order means little.

Target: GST-SBP-SLBP (stem-loop binding protein) (UniProt Q14493)
Experiment: targeted RNA Bind-n-Seq;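 further: DESeq read counts versus GST-SBP nonspecific binding control pulldown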
Details: RBNS binding buffer: 25 mM Tris pH 7.5, 150 mM KCl, 3 mM MgCl2, 0.1% Tween, 0.5 mg/mL BSA, 1 mM DTT; 27 nM protein, 750 pM RNA pool; temperature not stated; high values mean tight binding

Sequence	binding signal (log2 fold change)
GGUCACGUCUCAAUCAACUCAUCUCCAGGAGUUUGCUCCUGCUUAUUCAACAGCUCGCAGUCAAG	0.188
GGUCACGUCUCAAUCAACUCACUAGAGGGGGGGAAAACCCCUUUACCCUCCGUUUCAACAGCUCGCAGUCAAG	-0.0558
GGUCACGUCUCAAUCAACUCUAGUCCAGGAGUUUACUCCUGCUUUUUCAACAGCUCGCAGUCAAG	-0.295
GGUCACGUCUCAAUCAACUCAUUCCCCAGGGAAAGCCCUGGUUAAUUCAACAGCUCGCAGUCAAG	-0.153
GGUCACGUCUCAAUCAACUCUUUAGAGGGGGGGAAAACCCCUUUACCCUCAUCAUCAACAGCUCGCAGUCAAG	0.223
GGUCACGUCUCAAUCAACUCAUCCCCCAGGGAAAACCCUGGCAUAUUCAACAGCUCGCAGUCAAG	-0.0869
GGUCACGUCUCAAUCAACUCAAUUUCAGGAGUUUACUCCUGCUUAGUCAACAGCUCGCAGUCAAG	0.0418
GGUCACGUCUCAAUCAACUCUAUUCCAGGAGUUUUCUCCUGCUAAUUCAACAGCUCGCAGUCAAG	0.0919
GGUCACGUCUCAAUCAACUCUAGUCCCAGGGAAAUCCCUGGUAAUUUCAACAGCUCGCAGUCAAG	-0.0756
GGUCACGUCUCAAUCAACUCUAUCCCCAGGGAAACCCCUGGUAAAUUCAACAGCUCGCAGUCAAG	-0.0402
GGUCACGUCUCAAUCAACUCAUCGUCAGGAGUUUGCUCCUGCUAUUUCAACAGCUCGCAGUCAAG	0.0112
GGUCACGUCUCAAUCAACUCUACUCCCAGGGAAACCCCUGGUUAUUUCAACAGCUCGCAGUCAAG	0.226
GGUCACGUCUCAAUCAACUCAAGUCCAGGAGUUUUCUCCUGCAUAUUCAACAGCUCGCAGUCAAG	0.0783
GGUCACGUCUCAAUCAACUCUUUCUCAGGAGUUUUCUCCUGCAAUCUCAACAGCUCGCAGUCAAG	0.0902
GGUCACGUCUCAAUCAACUCUUUUUCCAGGGAAAACCCUGGCUUUCUCAACAGCUCGCAGUCAAG	0.0617
GGUCACGUCUCAAUCAACUCACUAGAGGGGGGGAAAACCCCUUUGCCCUCAAAUUCAACAGCUCGCAGUCAAG	-0.299
GGUCACGUCUCAAUCAACUCUAUCUCAGGAGUUUACUCCUGUUAACUCAACAGCUCGCAGUCAAG	-0.0213
GGUCACGUCUCAAUCAACUCAAUCCCAGGAGUUUCCUCCUGCUUACUCAACAGCUCGCAGUCAAG	-0.00384
GGUCACGUCUCAAUCAACUCAUUCCCCAGGGAAAACCCUGGCUAACUCAACAGCUCGCAGUCAAG	0.097
GGUCACGUCUCAAUCAACUCAUCUCCAGGAGUUUUCUCCUGCAUAUUCAACAGCUCGCAGUCAAG	0.095
GGUCACGUCUCAAUCAACUCAUCUCCCAGGGAAAGCCCUGGUAAUUUCAACAGCUCGCAGUCAAG	-0.147
